Converted amounts (≈) assume the structure as drawn. Read-outs that look alike come from different tables or passages of the source.
Tested on: M. tuberculosis (H37Rv)
Assay: MIC, Alamar blue assay
Assay type: cell-based
Details: Table E5; for MIC: Mycobacterium tuberculosis, H37RV
[1] = with addition of exogenous menaquinone-4 (10 μg/mL), read-out: M. tuberculosis MIC (in parentheses)
[2] = without menaquinone-4, read-out: M. tuberculosis MIC

Row | Structure (SMILES) | MIC [1] [µg/mL] | MIC [2] [µg/mL] | M. tuberculosis MIC (in parentheses) (with addition of exogenous menaquinone-4 (10 μg/mL)) [µg/mL] | M. tuberculosis MIC (without menaquinone-4) [µg/mL]
1 | Nc1ncnc2c1ncn2[C@@H]1O[C@H](COS(=O)(=O)NC(=O)CC[C@]2(O)c3ccccc3[C@H](O)C2(F)F)[C@@H](O)[C@H]1O [(1S,3S)-2, 5′-O—(N-[3″-((1S,3S)-2′″,2′″-difluoro-1′″,3′″-dihydroxy-1′″-indanyl)propanoyl]sulfamoyl)adenosine] | 31.2 (≈ 53.2 µM) | 31.2 (≈ 53.2 µM) | – | –
2 | Nc1ncnc2c1ncn2[C@@H]1O[C@H](COS(N)(=O)=O)[C@@H](O)[C@H]1O [AMS, adenosinemonosulfamate, reference compound] | – | – | 0.32 | 0.16
3 | Nc1ncnc2c1ncn2[C@@H]1O[C@H](COS(=O)(=O)NC(=O)CC[C@@]2(O)c3ccccc3[C@@H](O)C2(F)F)[C@@H](O)[C@H]1O [(1R,3R)-2, 5′-O—(N-[3″-((1R,3R)-2′″,2′″-difluoro-1′″,3′″-dihydroxy-1′″-indanyl)propanoyl]-sulfamoyl)adenosine] | 31.2 (≈ 53.2 µM) | 15.6 (≈ 26.6 µM) | – | –

— patent US20180273573A1, “INHIBITORS OF MENAQUINONE BIOSYNTHESIS” (Memorial Sloan-Kettering Cancer Center, priority 2015, published 2018)
